Tests used:
[1] = molecular target: T1, IL3Ra protein (TPP-5521, IL3Ra aa20-305, CD123) (Homo sapiens, UniProt P26951); assay: Binding affinity by surface plasmon resonance (Biacore); set-up: species or system murine; details: SPR sensorgram behaviour
T1 construct: IL3Ra aa20-305; purchased R&D Systems 203-IL
T1 sequence (P26951 20-305): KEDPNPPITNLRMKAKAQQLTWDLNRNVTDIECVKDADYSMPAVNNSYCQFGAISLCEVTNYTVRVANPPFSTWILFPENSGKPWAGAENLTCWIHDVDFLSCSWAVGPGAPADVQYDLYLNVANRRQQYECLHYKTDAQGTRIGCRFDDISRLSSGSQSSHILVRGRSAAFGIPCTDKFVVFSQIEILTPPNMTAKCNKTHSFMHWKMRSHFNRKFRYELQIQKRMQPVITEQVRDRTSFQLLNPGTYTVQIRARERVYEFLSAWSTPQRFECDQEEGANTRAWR
Protocol: (§1) The antibodies were furthermore characterized by their binding affinity to soluble IL3Ralpha (obtained from R&D Systems) via BIAcore analysis. To determine the cell binding characteristics of the anti-CD123 antibodies, binding was measured by flow cytometry on CD123-positive cancer cell line MOLM-13.
Surface plasmon resonance experiments for quantitative binding analysis were carried out using a Biacore T200 instrument (GE Healthcare Biacore, Inc.). Here the antibodies to be examined were fixed with the aid of an anti-human Fe antibody (“Human Antibody Capture Kit”, BR-1008-39, GE Healthcare Biacore, Inc.) amine-coupled to the sensor chip surface. Amine coupling was performed according to the manufacturer's instructions using 1-ethyl-3-(3-dimethylaminopropyl)carbodiimide hydrochloride (EDC), N-hydroxysuccinimide (NHS) and ethanolamine HCl pH 8.5 (“Amine Coupling Kit” BR-1000-50, GE Healthcare Biacore, Inc.). For the analyses, Series S sensor chips CM5 (GE Healthcare Biacore, Inc.) were used with the mobile buffer HBS-EP+(10 mM HEPES pH 7.4, 150 mM NaCl, 3 mM EDTA, 0.05% Surfactant P20). All experimental steps were carried out at 25° C. After fixation of the anti-CD123 antibodies to be examined, injections of the extracellular domain of IL3Rα (analyte, R&D Systems) at concentrations of 100 nM were carried out, and after each antigen injection the sensor surface was regenerated with glycine HCl pH 2.0. Prior to another analyte injection, antibodies were in each case fixed as above, under identical conditions. For all measurements, an upstream flow cell only containing immobilized amine-coupled anti-human Fe antibody was used as reference cell. Evaluation of the sensorgrams obtained was, after double referencing (subtraction of the reference flow cell signal and a buffer injection), carried out by a global fit based on a 1:1 Langmuir binding model with the aid of the Biacore T200 evaluation software (GE Healthcare Biacore, Inc.).

[2] = tested on: MOLM-13 cancer cell line (CD123-positive); assay: Flow cytometry (FACS) binding of anti-CD123 antibodies to cells; set-up: species or system human; details: for MOLM-13 EC50 [nM]: FACS binding, start 10 μg/ml, 1:5 dilution
Protocol: as §1
Binding of the anti-CD123 antibodies was examined by flow cytometry using human haematological cell line MOLM-13. To this end, the cells (5×10^5 cells/well) were incubated in FACS buffer (PBS without Ca/Mg, 3% FCS, Biochrom) with 10 μg/ml primary antibody solution (start concentration) on ice for 30-45 min protected from light. A dose activity curve (1:5 dilution) was plotted. After the incubation, 200 μl of ice-cold FACS buffer were added using a pipette, and the cell suspension was centrifuged at 4° C. 400 g for 4 min. The cell pellet was washed with 300 μl of ice-cold FACS buffer and the pellet obtained was then resuspended in 100 μl FACS buffer and incubated again with secondary antibody (monoclonal anti-kappa light chains-FITC antibody, Sigma, No. SAB4700605) in a 1:10 dilution on ice for 30 min. The cells were then washed with ice-cold FACS buffer and adjusted to a cell concentration of 0.5×10^6 cell/ml prior to flow cytometry using a Guava flow cytometer (Millipore). Propidium iodide (final concentration 1 μg/ml) was used for live staining. The results were shown as EC50 values determined based on the dose response curve and efficacy compared to maximal binding.

CD123-positive cells = assay: Co-localisation of the internalised CD123 antibody in the lysosome; assay type: cell-based; details: CypHer5E-labelled antibody 20 μg/ml, 6 h, 37° C., lysosome stain
Protocol: The toxic active compound of the antibody drug conjugates is released in the lysosome, owing to the linker selected. The transport of the antibody to this organelle is therefore crucial. By co-localisation of the antibody with marker proteins specific for the lysosome (e.g. surface protein or small GTPasen), it is possible to identify antibodies having a suitable profile. To this end, the CD123-positive cells (5×10^4/well) in 100 μl of medium were initially sown into a 96-MTP (Greiner bio-one, CELLSTAR, 650 180, U-bottom). After addition of the CypHer5E-labelled anti-CD123 antibody (final concentration 20 μg/ml), the batches were incubated in duplicate at 37° C. for 6 h. In each case 30 min prior to the end of the incubation time, a lysosome-specific live dye was added to the samples. The lysomes were stained using the CytoPainter LysoGreen indicator reagent (final concentration 1:2000; abeam, ab176826). After incubation, 200 μl of ice-cold FACS buffer (DULBECCO'S PBS, Sigma-Aldrich, No. D8537+3% FBS heat inactivated FBS, Gibco, No. 10500-064) were pipetted into the batch and the cell suspension was centrifuged at 400×g and 4° C. for 5 min. The pellet was then resuspended in 300 μl ice-cold FACS buffer and centrifuged again (4 min, 400×g at 4° C.). […] Co-localisation was evaluated using the specific co-localisation software IDEAS Application v6.1.

Molecule | Multiphasic behaviour [1] | MOLM-13 EC50 [nM] [2] | Co-localisation [%] (CD123-positive cells) | FACS binding, in words [2]
TPP-9075: germlining variant of TPP-8988 (12F1 campaign) (antibody) heavy: EVQLLESGGGLVQPGGSLRLSCAVSDYSITSGYYSNWIRQAPGKKLEWMGYISYDGSNNYNPSLKNGRITISRDTSKNTFYLQMNSLRAEDTAVYYCARGEGFYFDSWGQGTLVTVSS[human IgG1 constant region cut from this listing] light: EIVLTQSPGTLSLSPGERATLSCKSSQSLFFGSTQKNYLAWYQQKPGQAPRLLIYWASTRESGIPDRFSGSGSGTDFTLTISRLEPEDFAVYYCQQYYNYPWTFGQGTKLEIKRTVAAPSVFIFPPSDEQLKSGTASVVCLLNNFYPREAKVQWKVDNALQSGNSQESVTEQDSKDSTYSLSSTLTLSKADYEKHKVYACEVTHQGLSSPVTKSFNRGEC | low expression and/or undesirable multiphasic behavior |  |  | 
TPP-9078: germlining variant of TPP-8988 (12F1 campaign) (antibody) heavy: EVQLLESGGGLVQPGGSLRLSCAVSDYSITSGYYWNWIRQAPGKKLEWVGYISYDGSNNYNPSLKNGRITISRDTSKNTFYLQMNSLRAEDTAVYYCARGEGFYFDSWGQGTLVTVSS[human IgG1 constant region cut from this listing] light: EIVLTQSPGTLSLSPGERATLSCKSSQSLFFGSTQKNYLAWYQQKPGQAPRLLIYWASTRESGIPDRFSGSGSGTDFTLTISRLEPEDFAVYYCQQYYNYPWTFGQGTKLEIKRTVAAPSVFIFPPSDEQLKSGTASVVCLLNNFYPREAKVQWKVDNALQSGNSQESVTEQDSKDSTYSLSSTLTLSKADYEKHKVYACEVTHQGLSSPVTKSFNRGEC | low expression and/or undesirable multiphasic behavior | No binding |  | 
TPP-9104: germlining variant of TPP-8988 (12F1 campaign) (antibody) heavy: EVQLLESGGGLVQPGGSLRLSCAVSDYSITSNYYWNWIRQAPGKKLEWMGYISYDGSNNYNPSLKNGRITISRDTSKNTFYLQMNSLRAEDTAVYYCARGEGFYFDSWGQGTLVTVSS[human IgG1 constant region cut from this listing] light: EIVLTQSPGTLSLSPGERATLSCKSSQSLFFGSTQKNYLAWYQQKPGQAPRLLIYWASTRESGIPDRFSGSGSGTDFTLTISRLEPEDFAVYYCQQYYNYPWTFGQGTKLEIKRTVAAPSVFIFPPSDEQLKSGTASVVCLLNNFYPREAKVQWKVDNALQSGNSQESVTEQDSKDSTYSLSSTLTLSKADYEKHKVYACEVTHQGLSSPVTKSFNRGEC | low expression and/or undesirable multiphasic behavior |  |  | 
TPP-9129: germlining variant of TPP-8988 (12F1 campaign) (antibody) heavy: EVQLLESGGGLVQPGGSLRLSCAVSDYSITSGYYWNWIRQAPGKKLEWMGYISYDGSNNYNPSLKNGRITISRDTSKNTFYLQMNSLRAEDTAVYYCARGEGFYFDSWGQGTLVTVSS[human IgG1 constant region cut from this listing] light: EIVLTQSPGTLSLSPGERATLSCRASQSVSSSYLAWYQQKPGQAPRLLIYWASTRESGIPDRFSGSGSGTDFTLTISRLEPEDFAVYYCQQYYNYPWTFGQGTKLEIKRTVAAPSVFIFPPSDEQLKSGTASVVCLLNNFYPREAKVQWKVDNALQSGNSQESVTEQDSKDSTYSLSSTLTLSKADYEKHKVYACEVTHQGLSSPVTKSFNRGEC | low expression and/or undesirable multiphasic behavior | No binding |  | 
TPP-9130: germlining variant of TPP-8988 (12F1 campaign) (antibody) heavy: EVQLLESGGGLVQPGGSLRLSCAVSDYSITSGYYWNWIRQAPGKKLEWMGYISYDGSNNYNPSLKNGRITISRDTSKNTFYLQMNSLRAEDTAVYYCARGEGFYFDSWGQGTLVTVSS[human IgG1 constant region cut from this listing] light: EIVLTQSPGTLSLSPGERATLSCKSSQSLFFGSTQKNYLAWYQQKPGQAPRLLIYGASSRATGIPDRFSGSGSGTDFTLTISRLEPEDFAVYYCQQYYNYPWTFGQGTKLEIKRTVAAPSVFIFPPSDEQLKSGTASVVCLLNNFYPREAKVQWKVDNALQSGNSQESVTEQDSKDSTYSLSSTLTLSKADYEKHKVYACEVTHQGLSSPVTKSFNRGEC | low expression and/or undesirable multiphasic behavior |  |  | 
TPP-8988: humanized and germlined variant of anti-CD123 antibody 12F1; heavy chain SEQ ID NO: 139, light chain 140 (antibody, Antibody Sequence) heavy: EVQLLESGGGLVQPGGSLRLSCAVSDYSITSGYYWNWIRQAPGKKLEWMGYISYDGSNNYNPSLKNGRITISRDTSKNTFYLQMNSLRAEDTAVYYCARGEGFYFDSWGQGTLVTVSS[human IgG1 constant region cut from this listing] light: EIVLTQSPGTLSLSPGERATLSCKSSQSLFFGSTQKNYLAWYQQKPGQAPRLLIYWASTRESGIPDRFSGSGSGTDFTLTISRLEPEDFAVYYCQQYYNYPWTFGQGTKLEIKRTVAAPSVFIFPPSDEQLKSGTASVVCLLNNFYPREAKVQWKVDNALQSGNSQESVTEQDSKDSTYSLSSTLTLSKADYEKHKVYACEVTHQGLSSPVTKSFNRGEC | No |  | 41.0% | significant improved binding behaviour
TPP-6013: chimeric anti-CD123 antibody, chimeric variant of 12F1 (antibody) heavy: QVQLQESGPGLVKPSQSLSLTCSVTDYSITSGYYWNWIRQFPGNKLEWMGYISYDGSNNYNPSLKNRISITRDTSKNQFFLKLSSVTTEDTATYYCSRGEGFYFDSWGQGTTLTVSS[human IgG1 constant region cut from this listing] light: DIMMSQSPSSLAVSVGEKFTMTCKSSQSLFFGSTQKNYLAWYQQKPGQSPKLLIYWASTRESGVPDRFTGSGSGTDFTLAISSVMPEDLAVYYCQQYYNYPWTFGGGTKLEIKRTVAAPSVFIFPPSDEQLKSGTASVVCLLNNFYPREAKVQWKVDNALQSGNSQESVTEQDSKDSTYSLSSTLTLSKADYEKHKVYACEVTHQGLSSPVTKSFNRGEC | No |  | 43.5% | 

Reference: US20230399411A1, “SPECIFIC ANTIBODY-DRUG-CONJUGATES (ADCS) WITH KSP INHIBITORS AND ANTI-CD123-ANTIBODIES” (Bayer Pharma Aktiengesellschaft, priority 2016, published 2023)
